Each structure is given as a SMILES string. Where two headings read alike, the source gives them in different places.

The source of these data is patent US20040138247A1 (priority 1999, published 2004).

For data set [1] the following is noted: tablet formulation 7.5 mg.
Experiment in data set [2]: not given
This is another data set of the same source.

Another data set is described as follows: clinical. The settings on record: human, plasma, po, 7.5 mg, oral single dose 7.5 mg tablet, Mean (% CV); for AUC: AUC(l), N=17; for Cmax: N=18.
Data set [3] concerns seasonal allergic rhinitis. Kind of data set: Double-blinded, randomized clinical trials in seasonal allergic rhinitis patients.
For data set [4] the following is noted: co-administration of meals; PDR / CPS; cited from earlier work.

Usually AUC stands for concentration integrated over time. High values mean more exposure, low ones less exposure. As a reminder, the Cmax is the highest concentration seen after dosing. Regarding `Clc1ccc2c(c1)CCc1cccnc1C2=C1CCNCC1` [desloratadine], where the note is “5 mg tablet or syrup, healthy male and female subjects”, the “Blood pressure, pulse rate, electrocardiograms and oral body temperature evaluations” value is recorded as “no consistent changes of clinical relevance”. The Safety and tolerability entry (5 mg, tablet or syrup formulation) was “safe and well tolerated”; the Safety and tolerability result in data set [2] (single oral doses 7.5 mg under fed and fasted conditions) was “safe and well tolerated”. Moreover, under “2/30”, the “Treatment-related AE: gastrointestinal disorders” value is on record as 7%. For the same molecule, the “Effect of food intake on oral bioavailability” value in data set [1] was “no effect”. For the same molecule, the “Subjects reporting treatment-emergent adverse events” value in data set [2] (single 7.5 mg tablet fed and fasted, 9 of 18 subjects) turned out to be 50%. In addition, the figures for the area under the curve (AUC) in the data set “clinical” (FASTED) and in the data set “clinical” (FED) were 63.5 ng·h/mL and 62.5 ng·h/mL, respectively. Further, the values for the highest concentration (Cmax) in the data set “clinical” (FASTED) and in “clinical” (FED) were 3.3 ng/mL and 3.53 ng/mL, respectively. Besides, in data set [3] (5 mg), the “Reduction of nasal symptoms versus placebo” value is listed as “significantly (p<0.01) more effective than placebo”. The Total symptom scores result in data set [3] (5 mg once daily, seasonal allergic rhinitis patients) was “significantly reduced”. The “AM NOW total symptom score” value in data set [3] (5 mg to 20 mg dosage range, 24 hours after dose) was “Statistically significant (p<0.05) reductions were maintained for the full 24 hour dosing interval”.

For `CCOC(=O)N1CCC(=C2c3ccc(Cl)cc3CCc3cccnc32)CC1` [loratadine], in data set [4], the “Food effect (effects fed versus fasted)” value was “higher than when loratadine is administered to a patient under fasted condition”.
